± gives the standard deviation of the averaged measurements. Laboratory Escherichia coli strains with one amino-acid change in an essential protein, pooled on minimal glucose agar with carbenicillin or gentamicin at twice the control MIC (plus kanamycin and chloramphenicol for the plasmids), 48 h. Fold change of barcode share against drug-free plates; higher = less susceptible. Active = above 20 in both replicates (the paper's putatively resistant). '<' = one read or none on drug, '>' = one read or none on a drug-free plate. Shares are relative, so most strains fall below 1 when a few take over. Listed are strains with at least 15 reads on both drug-free plates, and hits; most hits rest on fewer reference reads. Replicate rank correlation about 0.5. Edits are read from barcodes.
Biological target: Escherichia coli (laboratory strain)
Assay: barcode share on antibiotic plates over drug-free plates; higher = less susceptible
Description: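 A pool of E. coli strains, each edited to carry one amino-acid change in an essential protein, was grown for 48 h on minimal glucose agar with or without antibiotic; strain barcodes were sequenced; mean of two replicates.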

[1] = antibiotic: carbenicillin, 2× MIC (3.1 µg/mL)
[2] = antibiotic: gentamicin, 2× MIC (MIC 0.45 µg/mL)

B1: nadE L196Q (protein)
chain: MTLQQQIIKALGAKPQINAEEEIRRSVDFLKSYLQTYPFIKSLVLGISGGQDSTLAGKLCQMAINELRLETGNESLQFIAVRLPYGVQADEQDCQDAIAFIQPDRVLTVNIKGAVLASEQALREAGIELSDFVRGNEKARERMKAQYSIAGMTSGVVVGTDHAAEAITGFFTKYGDGGTDINPLYRLNKRQGKQLQAALACPEHLYKKAPTADLEDDRPSLPDEVALGVTYDNIDDYLEGKNVPQQVARTIENWYLKTEHKRRPPITVFDDFWKK
fold change of barcode share [1]: 0.214 ± 0.14

B2: nrdA V289A (protein)
chain: MNQNLLVTKRDGSTERINLDKIHRVLDWAAEGLHNVSISQVELRSHIQFYDGIKTSDIHETIIKAAADLISRDAPDYQYLAARLAIFHLRKKAYGQFEPPALYDHVVKMVEMGKYDNHLLEDYTEEEFKQMDTFIDHDRDMTFSYAAVKQLEGKYLVQNRVTGEIYESAQFLYILVAACLFSNYPRETRLQYVKRFYDAVSTFKISLPTPIMSGVRTPTRQFSSCVLIECGDSLDSINATSSAIVKYVSQRAGIGINAGRIRALGSPIRGGEAFHTGCIPFYKHFQTAAKSCSQGGVRGGAATLFYPMWHLEVESLLVLKNNRGVEGNRVRHMDYGVQINKLMYTRLLKGEDITLFSPSDVPGLYDAFFADQEEFERLYTKYEKDDSIRKQRVKAVELFSLMMQERASTGRIYIQNVDHCNTHSPFDPAIAPVRQSNLCLEIALPTKPLNDVNDENGEIALCTLSAFNLGAINNLDELEELAILAVRALDALLDYQDYPIPAAKRGAMGRRTLGIGVINFAYYLAKHGKRYSDGSANNLTHKTFEAIQYYLLKASNELAKEQGACPWFNETTYAKGILPIDTYKKDLDTIANEPLHYDWEALRESIKTHGLRNSTLSALMPSETSSQISNATNGIEPPRGYVSIKASKDGILRQVVPDYEHLHDAYELLWEMPGNDGYLQLVGIMQKFIDQSISANTNYDPSRFPSGKVPMQQLLKDLLTAYKFGVKTLYYQNTRDGAEDAQDDLVPSIQDDGCESGACKI
fold change of barcode share [1]: 0.156 ± 0.14 | fold change of barcode share [2]: < 0.0136

B3: nrdA V289Q (protein)
chain: MNQNLLVTKRDGSTERINLDKIHRVLDWAAEGLHNVSISQVELRSHIQFYDGIKTSDIHETIIKAAADLISRDAPDYQYLAARLAIFHLRKKAYGQFEPPALYDHVVKMVEMGKYDNHLLEDYTEEEFKQMDTFIDHDRDMTFSYAAVKQLEGKYLVQNRVTGEIYESAQFLYILVAACLFSNYPRETRLQYVKRFYDAVSTFKISLPTPIMSGVRTPTRQFSSCVLIECGDSLDSINATSSAIVKYVSQRAGIGINAGRIRALGSPIRGGEAFHTGCIPFYKHFQTAQKSCSQGGVRGGAATLFYPMWHLEVESLLVLKNNRGVEGNRVRHMDYGVQINKLMYTRLLKGEDITLFSPSDVPGLYDAFFADQEEFERLYTKYEKDDSIRKQRVKAVELFSLMMQERASTGRIYIQNVDHCNTHSPFDPAIAPVRQSNLCLEIALPTKPLNDVNDENGEIALCTLSAFNLGAINNLDELEELAILAVRALDALLDYQDYPIPAAKRGAMGRRTLGIGVINFAYYLAKHGKRYSDGSANNLTHKTFEAIQYYLLKASNELAKEQGACPWFNETTYAKGILPIDTYKKDLDTIANEPLHYDWEALRESIKTHGLRNSTLSALMPSETSSQISNATNGIEPPRGYVSIKASKDGILRQVVPDYEHLHDAYELLWEMPGNDGYLQLVGIMQKFIDQSISANTNYDPSRFPSGKVPMQQLLKDLLTAYKFGVKTLYYQNTRDGAEDAQDDLVPSIQDDGCESGACKI
fold change of barcode share [1]: 0.108 ± 0.082 | fold change of barcode share [2]: < 0.0163

B4: nrdA V226A (protein)
chain: MNQNLLVTKRDGSTERINLDKIHRVLDWAAEGLHNVSISQVELRSHIQFYDGIKTSDIHETIIKAAADLISRDAPDYQYLAARLAIFHLRKKAYGQFEPPALYDHVVKMVEMGKYDNHLLEDYTEEEFKQMDTFIDHDRDMTFSYAAVKQLEGKYLVQNRVTGEIYESAQFLYILVAACLFSNYPRETRLQYVKRFYDAVSTFKISLPTPIMSGVRTPTRQFSSCALIECGDSLDSINATSSAIVKYVSQRAGIGINAGRIRALGSPIRGGEAFHTGCIPFYKHFQTAVKSCSQGGVRGGAATLFYPMWHLEVESLLVLKNNRGVEGNRVRHMDYGVQINKLMYTRLLKGEDITLFSPSDVPGLYDAFFADQEEFERLYTKYEKDDSIRKQRVKAVELFSLMMQERASTGRIYIQNVDHCNTHSPFDPAIAPVRQSNLCLEIALPTKPLNDVNDENGEIALCTLSAFNLGAINNLDELEELAILAVRALDALLDYQDYPIPAAKRGAMGRRTLGIGVINFAYYLAKHGKRYSDGSANNLTHKTFEAIQYYLLKASNELAKEQGACPWFNETTYAKGILPIDTYKKDLDTIANEPLHYDWEALRESIKTHGLRNSTLSALMPSETSSQISNATNGIEPPRGYVSIKASKDGILRQVVPDYEHLHDAYELLWEMPGNDGYLQLVGIMQKFIDQSISANTNYDPSRFPSGKVPMQQLLKDLLTAYKFGVKTLYYQNTRDGAEDAQDDLVPSIQDDGCESGACKI
fold change of barcode share [1]: 1.23 ± 0.33 | fold change of barcode share [2]: < 0.00278
